The values that follow come from paper PMC12820563.

Some of the results follow. The list includes weakly bound sequences.

This assay has as its target T1, MBP-FoxP3dN (UniProt Q99JB6).
T1 sequence: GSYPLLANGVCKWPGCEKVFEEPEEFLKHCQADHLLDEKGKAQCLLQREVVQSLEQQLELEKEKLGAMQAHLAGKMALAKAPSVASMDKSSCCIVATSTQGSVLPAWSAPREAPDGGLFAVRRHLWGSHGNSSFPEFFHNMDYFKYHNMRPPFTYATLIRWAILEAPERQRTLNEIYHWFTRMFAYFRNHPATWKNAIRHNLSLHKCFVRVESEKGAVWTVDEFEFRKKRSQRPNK
Kind of assay: PD-seq (MBP pull-down with sequencing). Conditions: 20 mM Tris-HCl pH 7.5, 100 mM NaCl, 1.5 mM MgCl2, 0.4 uM protein, 0.1 uM dsDNA library, 30 min, room temperature, amylose pull-down; high values mean tight binding; double strand, one strand shown.
Turning to “GATGATTGTTCTCCCAGCTGATGAATTTGCACCATCGAGTAAACAAATTTTCCTAATCTTTCTGTTCAAGCGCCATCTAC”, the binding signal (RPM ratio (pull-down/input)) was determined as 0.951.
Regarding “GATGATTGTTCTCCCAGCTGATGAATTCATTAGCTCGAGTAAACAAATTTTCCTAATCTTTCTGTTCAAGCGCCATCTAC”, the binding signal (RPM ratio (pull-down/input)) came out at 0.706.
“GATGATTGTTCTCCCAGCTGATGAATTAACAGGGTCGAGTAAACAAATTTTCCTAATCTTTCTGTTCAAGCGCCATCTAC”: the binding signal (RPM ratio (pull-down/input)) came to 0.25.
The figure for “GATGATTGTTCTCCCAGCTGATGAATTGCAGGTATCGAGTAAACAAATTTTCCTAATCTTTCTGTTCAAGCGCCATCTAC” is 1.04; for “GATGATTGTTCTCCCAGCTGATGAATTTGCTCATTCGAGTAAACAAATTTTCCTAATCTTTCTGTTCAAGCGCCATCTAC” it is 0.572.
In the case of “GATGATTGTTCTCCCAGCTGATGAATTCGAACCATCGAGTAAACAAATTTTCCTAATCTTTCTGTTCAAGCGCCATCTAC”, the binding signal (RPM ratio (pull-down/input)) was determined as 0.313.
Turning to “GATGATTGTTCTCCCAGCTGATGAATTGGTACTTTCGAGTAAACAAATTTTCCTAATCTTTCTGTTCAAGCGCCATCTAC”, the binding signal (RPM ratio (pull-down/input)) worked out at 0.472.
The result for “GATGATTGTTCTCCCAGCTGATGAATTGTTGATTTCGAGTAAACAAATTTTCCTAATCTTTCTGTTCAAGCGCCATCTAC” reads 5.09; that for “GATGATTGTTCTCCCAGCTGATGAATTGTTGTCATCGAGTAAACAAATTTTCCTAATCTTTCTGTTCAAGCGCCATCTAC”, 5.33; that for “GATGATTGTTCTCCCAGCTGATGAATTGTATAAGTCGAGTAAACAAATTTTCCTAATCTTTCTGTTCAAGCGCCATCTAC”, 0.686.
For the sequence “GATGATTGTTCTCCCAGCTGATGAATTGCACATATCGAGTAAACAAATTTTCCTAATCTTTCTGTTCAAGCGCCATCTAC”, the binding signal (RPM ratio (pull-down/input)) was determined as 1.19.
“GATGATTGTTCTCCCAGCTGATGAATTAGAGCGGTCGAGTAAACAAATTTTCCTAATCTTTCTGTTCAAGCGCCATCTAC”: the binding signal (RPM ratio (pull-down/input)) was 0.238.
Regarding “GATGATTGTTCTCCCAGCTGATGAATTCGCTCTATCGAGTAAACAAATTTTCCTAATCTTTCTGTTCAAGCGCCATCTAC”, the binding signal (RPM ratio (pull-down/input)) worked out at 0.357.
The result for “GATGATTGTTCTCCCAGCTGATGAATTTCGCAATTCGAGTAAACAAATTTTCCTAATCTTTCTGTTCAAGCGCCATCTAC” reads 4.55; that for “GATGATTGTTCTCCCAGCTGATGAATTGTCCGGATCGAGTAAACAAATTTTCCTAATCTTTCTGTTCAAGCGCCATCTAC”, 0.197.
The figure for “GATGATTGTTCTCCCAGCTGATGAATTAACGAGATCGAGTAAACAAATTTTCCTAATCTTTCTGTTCAAGCGCCATCTAC” is 0.238; for “GATGATTGTTCTCCCAGCTGATGAATTCGGGTGTTCGAGTAAACAAATTTTCCTAATCTTTCTGTTCAAGCGCCATCTAC” it is 0.701; for “GATGATTGTTCTCCCAGCTGATGAATTTTCGAGTTCGAGTAAACAAATTTTCCTAATCTTTCTGTTCAAGCGCCATCTAC” it is 0.414.
Consider “GATGATTGTTCTCCCAGCTGATGAATTTCCGGTGTCGAGTAAACAAATTTTCCTAATCTTTCTGTTCAAGCGCCATCTAC”, for which the binding signal (RPM ratio (pull-down/input)) came out at 0.41.
“GATGATTGTTCTCCCAGCTGATGAATTTGCTGAATCGAGTAAACAAATTTTCCTAATCTTTCTGTTCAAGCGCCATCTAC”: the binding signal (RPM ratio (pull-down/input)) turned out to be 0.458.
With “GATGATTGTTCTCCCAGCTGATGAATTGTCGTCCTCGAGTAAACAAATTTTCCTAATCTTTCTGTTCAAGCGCCATCTAC”, the binding signal (RPM ratio (pull-down/input)) was 0.673.
The figure for “GATGATTGTTCTCCCAGCTGATGAATTGAGCCCCTCGAGTAAACAAATTTTCCTAATCTTTCTGTTCAAGCGCCATCTAC” is 0.983.
With “GATGATTGTTCTCCCAGCTGATGAATTACGCCTGTCGAGTAAACAAATTTTCCTAATCTTTCTGTTCAAGCGCCATCTAC”, the binding signal (RPM ratio (pull-down/input)) came out at 5.4.
Regarding “GATGATTGTTCTCCCAGCTGATGAATTGTGGGTTTCGAGTAAACAAATTTTCCTAATCTTTCTGTTCAAGCGCCATCTAC”, the binding signal (RPM ratio (pull-down/input)) came out at 1.32.
Regarding “GATGATTGTTCTCCCAGCTGATGAATTCGTCACATCGAGTAAACAAATTTTCCTAATCTTTCTGTTCAAGCGCCATCTAC”, the binding signal (RPM ratio (pull-down/input)) came to 0.953.
For the sequence “GATGATTGTTCTCCCAGCTGATGAATTTGACCCATCGAGTAAACAAATTTTCCTAATCTTTCTGTTCAAGCGCCATCTAC”, the binding signal (RPM ratio (pull-down/input)) stood at 0.388.
As for “GATGATTGTTCTCCCAGCTGATGAATTCCCTTTATCGAGTAAACAAATTTTCCTAATCTTTCTGTTCAAGCGCCATCTAC”, the binding signal (RPM ratio (pull-down/input)) was determined as 0.403.
The result for “GATGATTGTTCTCCCAGCTGATGAATTTAATAATTCGAGTAAACAAATTTTCCTAATCTTTCTGTTCAAGCGCCATCTAC” reads 0.48; that for “GATGATTGTTCTCCCAGCTGATGAATTCGTTTGCTCGAGTAAACAAATTTTCCTAATCTTTCTGTTCAAGCGCCATCTAC”, 4.62.
Regarding “GATGATTGTTCTCCCAGCTGATGAATTATGACTTTCGAGTAAACAAATTTTCCTAATCTTTCTGTTCAAGCGCCATCTAC”, the binding signal (RPM ratio (pull-down/input)) worked out at 1.49.
Consider “GATGATTGTTCTCCCAGCTGATGAATTATGTGTTTCGAGTAAACAAATTTTCCTAATCTTTCTGTTCAAGCGCCATCTAC”, for which the binding signal (RPM ratio (pull-down/input)) was found to be 4.42.
Regarding “GATGATTGTTCTCCCAGCTGATGAATTGGTCGAGTCGAGTAAACAAATTTTCCTAATCTTTCTGTTCAAGCGCCATCTAC”, the binding signal (RPM ratio (pull-down/input)) turned out to be 0.27.
